Measurements reported in publication PMC7698926 (International Journal of Molecular Sciences, 2020).
Where a SMILES comes first, the peptide text is derived from it.

System: X. oryzae pv. oryzae
Type: cell-based, Xanthomonas oryzae pv. oryzae
Conditions: peptide 1 × MIC, KCl 1.5, 3, 4.5 mM, CaCl2 1.25, 2.5, 5 mM, MgCl2 0.5, 1, 2 mM, OD600

With `CC[C@H](C)[C@H](NC(=O)[C@H](CO)NC(=O)[C@H](CCCCN)NC(=O)[C@H](CCCNC(=N)N)NC(=O)[C@@H](NC(=O)[C@H](CCC(=O)O)NC(=O)[C@H](Cc1ccc(O)cc1)NC(=O)[C@H](CS)NC(=O)[C@H](Cc1c[nH]cn1)NC(=O)[C@@H](NC(=O)[C@H](Cc1c[nH]cn1)NC(=O)[C@H](CCCCN)NC(=O)[C@H](CCC(=O)O)NC(=O)[C@H](CO)NC(=O)[C@H](CO)NC(=O)[C@@H](NC(=O)[C@H](CS)NC(=O)[C@H](CC(N)=O)NC(=O)[C@H](Cc1ccc(O)cc1)NC(=O)[C@@H](NC(=O)[C@H](Cc1c[nH]cn1)NC(=O)[C@@H](NC(=O)[C@H](Cc1ccc(O)cc1)NC(=O)[C@@H](NC(=O)[C@H](CC(=O)O)NC(=O)[C@@H](NC(=O)[C@@H](N)CC(C)C)C(C)C)[C@@H](C)CC)[C@@H](C)O)C(C)C)[C@@H](C)O)[C@@H](C)O)[C@@H](C)CC)C(=O)N[C@@H](CO)C(=O)O` [OrR214] (H-LVDIYTHVYNCTSSEKHTHCYEIRKSIS-OH) the “antibacterial activity in K+, Ca2+ and Mg2+ salt solutions” value was “slightly inhibited”.
